Laboratory results: PubChem BioAssay (Tox21)
Several values for one entry are separate records, joined by “and”; a condition that tells them apart may be missing. Equal values may be shown once. The shares of active, inactive and inconclusive entries below differ from those in the screen. For some assays here: Where the call is inconclusive, the potency comes from a doubtful curve fit. More than one record can exist for a structure, and the calls need not agree. Activity calls are given as the source filed them. Unless noted, the call rests on the fitted dose curve; in most records, active means well fitted curve in the direction sought with a large enough effect in the repeat runs; inconclusive means weak or mixed curves; inactive means no such curve, though single readings can be large; an effect the other way counts as inactive or inconclusive.

Assays:
[1] = qHTS assay to identify small molecule agonists of the hypoxia (HIF-1) signaling pathway (AID 1224846; active means well fitted activation curve with a large enough effect in the signal ratio in the repeat runs, not every such curve was filed as active; inconclusive means weak or mixed curves; the % refers to the signal ratio); conditions: HRE-bla ME-180 cells, beta-lactamase ratio, 17 h; series mostly up to 76.8 µM
Summary of the method: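 Agonist mode reporter screen. ME-180 cells stably expressing bla under HRE control received test compounds in DMSO for 17 hrs (37C, 5% CO2), and beta-lactamase activity was then detected with the CCF4-AM FRET substrate.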

[2] = qHTS assay to identify small molecule agonists of H2AX - cell viability counter screen (AID 1224847; calls by dose curve; further: nearly all actives have a fitted effect of over 30% in size)
Summary of the method: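 Wild-type CHO-K1 cells (10% FBS medium) were plated overnight at 37C, exposed to compounds at 15 concentrations for 3 hr at 37C (0.76% DMSO final), and viability was read as CellTiter-Glo luminescence after 30 min at room temperature.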

[3] = qHTS RealTime-Glo MT Cell Viability Assay in HEK293 cells - 32 hour (AID 1224868); further: nearly all actives have a fitted effect of over 50% in size
Summary of the method: (§1)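 Viability tracked continuously by luminescence as live cells reduce a prosubstrate for NanoLuc; HEK293 cells preincubated 5 h, compound-treated at 37 C, and read at 0, 8, 16, 24, 32 and 40 h.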

[4] = qHTS RealTime-Glo MT Cell Viability Assay in HEK293 cells - 16 hour (AID 1224872); further: nearly all actives have a fitted effect of over 50% in size
Summary of the method: as §1

[5] = A CellTox Green Cytotoxicity Assay to monitor cytotoxicity in HEK293 cells - 24 hour (AID 1224875); further: nearly all actives have a fitted effect of over 45% in size
Summary of the method: (§2)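 Dead-cell fluorescence measured kinetically: asymmetric cyanine dye, HEK293, 600 cells/well, 5 h settle, 23 nL cpd/DMSO, 37 C, reads 0–40 h every 8 h.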

[6] = A CellTox Green Cytotoxicity Assay to monitor cytotoxicity in HepG2 cells - 16 hour (AID 1224876); further: nearly all actives have a fitted effect of over 45% in size
Summary of the method: (§3)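 First, HepG2 cells (600/well) mixed with reagent were plated; second, after 5 h at 37 C they received compounds via pintool; third, fluorescence was measured at 0 h through 40 h at 8 h intervals.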

[7] = A CellTox Green Cytotoxicity Assay to monitor cytotoxicity in HepG2 cells - 40 hour (AID 1224879); further: nearly all actives have a fitted effect of over 40% in size
Summary of the method: as §3

[8] = qHTS RealTime-Glo MT Cell Viability Assay in HepG2 cells - 8 hour (AID 1224873); further: nearly all actives have a fitted effect of over 55% in size
Summary of the method: (§4)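 HepG2 cells (600/well) mixed with RealTime-Glo MT reagent, settled 5 h at 37 C/5% CO2 before compound addition. Nonlytic NanoLuc luminescence from viable-cell prosubstrate reduction read repeatedly during 40 h treatment at 37 C.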

[9] = qHTS RealTime-Glo MT Cell Viability Assay in HEK293 cells - 40 hour (AID 1224874); conditions: RealTime-Glo luminescence; max response: stronger effect = lower value; further: nearly all actives have a fitted effect of over 50% in size
Summary of the method: (§5)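 600 HEK293 cells per well, dispensed already mixed with RealTime-Glo MT reagents. Compound dosing came 5 h later. The same wells were read for luminescence at 0, 8, 16, 24, 32 and 40 h of exposure at 37 C.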

[10] = qHTS RealTime-Glo MT Cell Viability Assay in HEK293 cells - 0 hour (AID 1224880); further: nearly all actives have a fitted effect of over 45% in size
Summary of the method: as §5

[11] = A CellTox Green Cytotoxicity Assay to monitor cytotoxicity in HEK293 cells - 0 hour (AID 1224869); further: nearly all actives have a fitted effect of over 50% in size
Summary of the method: as §2

[12] = A CellTox Green Cytotoxicity Assay to monitor cytotoxicity in HEK293 cells - 40 hour (AID 1224871); further: nearly all actives have a fitted effect of over 45% in size
Summary of the method: as §2

[13] = A CellTox Green Cytotoxicity Assay to monitor cytotoxicity in HEK293 cells - 32 hour (AID 1224881); further: nearly all actives have a fitted effect of over 40% in size
Summary of the method: as §2

[14] = qHTS assay to identify small molecule antagonists of the estrogen related receptor (ERR) signaling pathway from Tox21 library (AID 1224848); further: nearly all actives have a fitted effect of over 50% in size
Summary of the method: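 Compounds dissolved in DMSO are pin-transferred onto ERR reporter cells (2,000 per well) that have settled for 6 h at 37 C. Plates then incubate 18 h at 37 C before ONE-Glo luciferase reagent and a luminescence read 30 min later.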

[15] = qHTS RealTime-Glo MT Cell Viability Assay in HepG2 cells - 24 hour (AID 1224867); further: nearly all actives have a fitted effect of over 50% in size
Summary of the method: (§6)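 Viability was tracked continuously by NanoLuc luminescence from prosubstrate reduced by living HepG2 cells, at successive time points over 40 h of compound exposure. Cells with reagent were preincubated 5 h at 37 °C before compound addition.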

[16] = qHTS RealTime-Glo MT Cell Viability Assay in HepG2 cells - 32 hour (AID 1224877); further: nearly all actives have a fitted effect of over 55% in size
Summary of the method: as §6

[17] = A CellTox Green Cytotoxicity Assay to monitor cytotoxicity in HepG2 cells - 24 hour (AID 1224878); further: nearly all actives have a fitted effect of over 45% in size
Summary of the method: as §3

[18] = qHTS RealTime-Glo MT Cell Viability Assay in HepG2 cells - 40 hour (AID 1224870); further: nearly all actives have a fitted effect of over 50% in size
Summary of the method: as §4
Potency means the concentration at half of the fitted maximal effect; tags describe the fitted curve by direction and shape or compound fluorescence and quenching.

SMILES: NC(N)=NN=C(/C=C/c1ccc([N+](=O)[O-])o1)/C=C/c1ccc([N+](=O)[O-])o1
- Potency [1]: inconclusive: 8.49 µM [falling, full curve]
- Potency [2]: inconclusive: 55.2 µM [cytotoxic, single point]
- Potency [3]: inconclusive: 0.0849 µM [rising, partial curve]
- Potency [4]: inconclusive: 0.107 µM [rising, partial curve]
- Potency [5]: active: 10.7 µM
- Potency [6]: active: 3.79 µM
- Potency [7]: active: 1.69 µM

SMILES: O=C1Cc2cc(Cl)ccc2N1
- Potency [1]: inactive
- Potency [2]: inactive
- Potency [4]: inconclusive: 21.3 µM [rising, partial curve]
- Potency [8]: inactive
- Potency [9]: inconclusive: 213 µM [rising, partial curve, poor fit]
- Potency [10]: inactive

SMILES: Nc1ccccc1N
- Potency [1]: inconclusive: 49 µM [rising, partial curve, poor fit]
- Potency [2]: inconclusive: 45 µM [cytotoxic, partial curve]
- Potency [3]: inconclusive: 6.16 µM [rising, full curve]
- Potency [11]: inconclusive: 54.9 µM [activator, single point]
- Potency [12]: active: 50.1 µM and inconclusive: 54.9 µM [activator, single point]
- Potency [9]: inconclusive: 21.3 µM
- Potency [5]: inconclusive: 54.9 µM [activator, single point]
- Potency [6]: active: 56.2 µM
- Potency [7]: inconclusive: 19.5 µM [activator, single point]
- Potency [13]: inconclusive: 54.9 µM [activator, single point]

SMILES: COC(=O)c1ccccc1C(=O)O
- Potency [1]: inactive

SMILES: O=C(NOCC1CC1)c1ccc(F)c(F)c1Nc1ccc(I)cc1Cl
- Potency [1]: inconclusive: 26.8 µM [single point]
- Potency [2]: inconclusive: 61.9 µM [cytotoxic, single point]
- Potency [14]: active: 11.9 µM
- Potency [15]: inconclusive: 0.151 µM [falling, full curve]
- Potency [3]: inconclusive: 21.3 µM [cytotoxic, partial curve]
- Potency [4]: inconclusive: 19 µM [cytotoxic, partial curve, poor fit]
- Potency [16]: inconclusive: 239 nM [cytotoxic, full curve]
- Potency [17]: active: 0.0425 µM
- Potency [10]: active: 16.9 µM

SMILES: CCO[Si](CC(C)C)(OCC)OCC
- Potency [1]: inconclusive: 61.6 µM [falling, single point]
- Potency [2]: inactive
- Potency [14]: inconclusive: 68.6 µM [inhibitor, single point]
- Potency [15]: inactive
- Potency [6]: inconclusive: 61.6 µM [activator, partial curve, poor fit]
- Potency [17]: inconclusive: 61.6 µM [activator, partial curve, poor fit]
- Potency [7]: inconclusive: 61.6 µM [activator, single point]

SMILES: COc1ccccc1NC(=O)c1cc2ccccc2cc1O
- Potency [1]: inconclusive: 54.9 µM [falling, partial curve]
- Potency [2]: active: 89.8 µM
- Potency [15]: inconclusive: 24.5 µM [falling, partial curve]
- Potency [18]: inconclusive: 27.5 µM [falling, partial curve]
- Potency [8]: inconclusive: 30.9 µM [falling, partial curve, poor fit]
- Potency [16]: inconclusive: 24500 nM [cytotoxic, partial curve]
- Potency [7]: inconclusive: 49 µM [activator, partial curve]

SMILES: CCCCCCC(C)(C)C(=O)O
- Potency [1]: inactive
- Potency [14]: inconclusive: 54.5 µM [inhibitor, partial curve]

SMILES: NC(=O)c1nc(-c2cccc(-c3cc(F)ccc3OCC(F)(F)C(F)(F)F)c2)n[nH]1
- Potency [1]: inconclusive: 54.9 µM
- Potency [2]: active: 101 µM
- Potency [3]: inconclusive: 21.9 µM [cytotoxic, partial curve]
- Potency [12]: inconclusive: 54.9 µM [activator, single point]
- Potency [4]: inconclusive: 49 µM [cytotoxic, partial curve, poor fit]
- Potency [9]: inconclusive: 21.9 µM [cytotoxic, partial curve]
- Potency [17]: active: 43.6 µM
- Potency [13]: inconclusive: 54.9 µM [activator, single point]

SMILES: Cc1ccc(C(=O)c2cc(O)c(O)c([N+](=O)[O-])c2)cc1
- Potency [1]: inconclusive: 26.8 µM [activator]
- Potency [2]: inconclusive: 101 µM [cytotoxic, single point]
- Potency [14]: active: 30.6 µM and active: 26.6 µM
- Potency [15]: inconclusive: 49 µM [falling, partial curve, poor fit]
- Potency [3]: inconclusive: 49 µM [cytotoxic, single point]
- Potency [18]: inconclusive: 54.9 µM [falling, partial curve, poor fit]
- Potency [12]: inconclusive: 10.7 µM [activator, single point]
- Potency [9]: inconclusive: 26.8 µM [cytotoxic, single point]
- Potency [16]: inconclusive: 49 µM [cytotoxic, partial curve, poor fit] and inactive
- Potency [7]: active: 49 µM
- Potency [13]: inconclusive: 13.4 µM [activator, single point]
